Source: the RNAGym collection of RNA variant scans (doi:10.7554/elife.90254)
Read counts are not given, so values of variants with three or more changes are uncertain.

B1: LINE1-mini (parent)
chain: GGCAGAGCUCAACACAGCGUGGCAAAGUGGCUGUGGCUAGACUGCC

Variants of: B1
Assay: self-cleavage, relative activity (ratio to wild type); higher = more cleavage; in vitro, sequencing; the parent is a self-cleaving ribozyme

| Variant | self-cleavage |
| --- | --- |
| GGCAGUGCUCAACACAGGGUGGCAAAGUGGCUCUGGCUAGACAGCC [A6U C18G G33C U43A] | 0.01 |
| GGAACAGCAGUACACAGCGUAGCAAAGUGGCUGUGGCUAGACUGCC [C3A G5C U9A C10G A11U G21A] | 0.01 |
| UGCAGAGCUCAACACAACGUGGCAAAGUGGCUGCGGCUAGACUGCC [G1U G17A U34C] | 0.03 |
| GGCAGAGCUCAACACAGCGUUGCAAAGUGGCUGUUGAUAGACUGCC [G21U G35U C37A] | 0.05 |
| GGCAGAGCUCAACAUAGCGUGGCUAAGUGGCUAUGACUAGACUGCC [C15U A24U G33A G36A] | 0.03 |
| GGCAGAGCUCAACACAGCGUGGCAAUGUGACGUUGACUCGACUAGC [A26U G30A U32G G33U G36A A39C G44A C45G] | 0 |
| GGCCGAGCUCAACACAGCGUGACAAAGUGGCUGUUGCUAGCCUGCC [A4C G22A G35U A41C] | 0.05 |
| GGCAGAGCUCAACACAGCUUCGCAAAGUGGCUGCGGCUAGACUGCC [G19U G21C U34C] | 0.2 |
| GGCAGAGAUCAACACAGCGUUGCAAAGUGGCUGUGGCUAGACUACC [C8A G21U G44A] | 0.41 |
| GGGAGAGCUCAACACAGCGUGGCAAAGUGGCUGUCGCCAGACUGCC [C3G G35C U38C] | 0.03 |
| GGCAGAGCUGAACACAGCGUGGCAAAGUGGGUGUGGCUUGACUGCG [C10G C31G A39U C46G] | 0.02 |
| GGCAGGGCUUAACAUAGCGUGACAAAGUGGCUGUGGCUAGACUGCC [A6G C10U C15U G22A] | 0.03 |
| GGCAGAGAUCACCACAGCGUGGCAAAGUGGCUGUGGCUAUACUGCC [C8A A12C G40U] | 0.02 |
| GGCAGAGCUCACCACAUCGUGGCAAAGUGGCUGUCGCUAAACUGCC [A12C G17U G35C G40A] | 0.01 |
| GGCACAGCUCAACCCAGCGUGGCAAAGUGGCUGUGACUAGACUGCA [G5C A14C G36A C46A] | 0.03 |
| GGCAGAGCUCAAAACAGCGUGGCAAAGUAGCUGUGGCUAGACUGAC [C13A G29A C45A] | 0.1 |
| GGAACAGCUCAACACAGCGUGGCAAAGUGGCUGUGAUUAGACUGCC [C3A G5C G36A C37U] | 0.03 |
| GGCAGAGCUCAACACAGCGUGGCAAAGUGGAUGCGGCUAUAAUGGC [C31A U34C G40U C42A C45G] | 0.05 |
| GGUAGAGCUCAACACAGCGUGGCAAAGUGGCUGUGGAUAGACUGAC [C3U C37A C45A] | 0.12 |

| Variant | self-cleavage |
| --- | --- |
| GGCACAGGUUAAACCAGCGUGGCAAAGUGGCUGUGGCUAGUCUGCC [G5C C8G C10U C13A A14C A41U] | 0.06 |
| GGCAGUUCUGAACACAGCGUGGCAAAGUGGCUGUGGCUAGACUGCC [A6U G7U C10G] | 0.01 |
| GGAAGAGCUCAACACAGCGGGGCAAAGUGGCUGUGGCGAGACUGCC [C3A U20G U38G] | 0.13 |
| GGCAGAGCUCAACACAGCGUGGCUAAGUGGCUUUGGUUAGACUGCC [A24U G33U C37U] | 0.07 |
| GGCAGAGCUCAACACAUCGUGGUAAAGUGGCUGUGGGUAGACUGCC [G17U C23U C37G] | 0.06 |
| GGCAUAGCUCAACAGAGCGUGGCCAAUUGGCUGUGGCUAUACUGCC [G5U C15G A24C G27U G40U] | 0.01 |
| GGCAUAGCUCAACACAGCGUGGCAAAGCGGCUGUGGCUAGACUGGC [G5U U28C C45G] | 0.04 |
| GGCAGAGCUCAACACCUCGUGGUAAAGUGGCUGUGGCUAGACUGUC [A16C G17U C23U C45U] | 0.81 |
| GGCAGAGCUCAACACAGUGUGACAAAGUCGCUGUGGCUAGACUGCC [C18U G22A G29C] | 0.89 |
| GGCAGUGCUCGACACAGCGUGGCAACGUGGCUGUGGCUAGACUGCC [A6U A11G A26C] | 0.02 |
| GCCAAAGAUCAACACACCGUGGCAAAGCGGCUUUGGCUAGGCUGCC [G2C G5A C8A G17C U28C G33U A41G] | 0.07 |
| GGCAGAUCUCAACACAGCGCGGCAAAGUGGCUGUGGCUAGACUGAC [G7U U20C C45A] | 0.05 |
| GGCUGAGCUCAACACCGCGUGGCAAAGUGGCUGUGUCUAGACUGCC [A4U A16C G36U] | 0.18 |
| GGCAGAGCUCAACAUAGCAUGGCGAAGUGGCUGUGGCUAGACUGCC [C15U G19A A24G] | 0.4 |
| GGCAGAGCGCAACACAGCGUGGCAAAGUGGCUUUGGCUAGACUGAC [U9G G33U C45A] | 0.16 |
| GGCCGAGCUCAACACAGUCUGGCAAAGUGGCUGUGGCUAGACUGCC [A4C C18U G19C] | 0.03 |
| GGCAGAGCUCCACACAGCGUGGCAGGGUGGCCGUGGCUAGGCUGCC [A11C A25G A26G U32C A41G] | 0.02 |
| GGCAGCGCUCAACACAGGGUGGCAAAGUGGCUGUGGCUAGUCUCUC [A6C C18G A41U G44C C45U] | 0.01 |
| GGCAGAGCUCAACACGGCCGGGCAAAGUGGCUGUGGCUAGACUGCC [A16G G19C U20G] | 0.2 |

| Variant | self-cleavage |
| --- | --- |
| GGCAGAGCUCAACACAGCGUGGCAAAGUGGCUGUAGCUCGACUACC [G35A A39C G44A] | 0.04 |
| AGCAGAGCUCAACAAAGCGUGGCAAAGUAACUGUGGCUAGACUGUC [G1A C15A G29A G30A C45U] | 0.02 |
| GGCAGAGCUCAACACAGUGUGGCAAAGUGGCUGUGGCCAUACUGCC [C18U U38C G40U] | 0.04 |
| CGCAGAUUUCAACACAGCGUGGCUGAGUGGCUGUGGCUAGACUGCC [G1C G7U C8U A24U A25G] | 0.1 |
| GUCAGAGCUCAACACAGCAUCGCAAAGUGGCUGUGGCUAGACUGCC [G2U G19A G21C] | 0.05 |
| GGCAGAUCCUAACACAGCGUGGCAAAGUGGCUGUGGCUAGACUAGC [G7U U9C C10U G44A C45G] | 0.01 |
| GGUAGACCUCAUCACAGCGAGGCAAAGUGGCUGUGGCUAGACUGCC [C3U G7C A12U U20A] | 0.02 |
| GGAAGAGGUCAACACAGCGCGGCAAGGUGGCUGUCGUUAGACUGCC [C3A C8G U20C A26G G35C C37U] | 0.03 |
| GGCAGAGCUCAACACAGAGUGGGAAAGUGGCUGGGGCUAGACUACC [C18A C23G U34G G44A] | 0.01 |
| UGCAGAGUUCAACACAGCGUGGCAAAGUGGCUGUUGCUACACUGCC [G1U C8U G35U G40C] | 0.15 |
| GGAAGAGCUCAACAUAGCGGAGCACAGUGGCUGUGGCUAGACUGCC [C3A C15U U20G G21A A25C] | 0.06 |
| GGCAGAGCUCACCACAGCGUGGCCAAGUGGCUGUGGCUUGACUGCC [A12C A24C A39U] | 0.05 |
| GGCACAGCUCAACACAGCGAGGCCAAGUGGCUGUGGCUAGACUGCC [G5C U20A A24C] | 0.03 |
| GGUAGAGCUCAACACAGCAUGGCAAAGUGGCUUUGGCUAGACUGCC [C3U G19A G33U] | 0.13 |
| GGCAGAGCUAAACACAGCGUGCCAAAGUGGCAGUGGCUAGACUGCC [C10A G22C U32A] | 0 |
| GGCAGAGCACAGCACAGCGUGGCAAAGUGGCUGUGGCUAGGCUGCC [U9A A12G A41G] | 0.03 |
| GGCAGAUCUCAACACAGCGUGGAAAAGUGGCCGUGGCGAGACUGCC [G7U C23A U32C U38G] | 0 |
| GGCAGCGCUCAACACAGCGUGGCAAAGUGGCAGUGGCUAGACUGUC [A6C U32A C45U] | 0.17 |
